The values below come from article PMC6919601, “Identification of Plasmodium dipeptidyl aminopeptidase allosteric inhibitors by high throughput screening” (PLoS ONE, 2019).

SMILES strings stand for the structures. About 230 (0.21%) of roughly 110,000 compounds showed an effect of 50% or more. This is one part of the list.
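Also: 30 min substrate incubation versus DMSO and 10 µM JCP410 controls.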

For the assay, the target named is DPAP1 (Plasmodium falciparum, UniProt Q8IIJ9). Briefly: primary screen, percent inhibition; read by cleavage of a fluorogenic dipeptide substrate; higher = more effect of the substance. Also on record: species or system P. falciparum D10 trophozoite lysates; single well.
Chain of DPAP1 (Q8IIJ9 whole entry, looked up): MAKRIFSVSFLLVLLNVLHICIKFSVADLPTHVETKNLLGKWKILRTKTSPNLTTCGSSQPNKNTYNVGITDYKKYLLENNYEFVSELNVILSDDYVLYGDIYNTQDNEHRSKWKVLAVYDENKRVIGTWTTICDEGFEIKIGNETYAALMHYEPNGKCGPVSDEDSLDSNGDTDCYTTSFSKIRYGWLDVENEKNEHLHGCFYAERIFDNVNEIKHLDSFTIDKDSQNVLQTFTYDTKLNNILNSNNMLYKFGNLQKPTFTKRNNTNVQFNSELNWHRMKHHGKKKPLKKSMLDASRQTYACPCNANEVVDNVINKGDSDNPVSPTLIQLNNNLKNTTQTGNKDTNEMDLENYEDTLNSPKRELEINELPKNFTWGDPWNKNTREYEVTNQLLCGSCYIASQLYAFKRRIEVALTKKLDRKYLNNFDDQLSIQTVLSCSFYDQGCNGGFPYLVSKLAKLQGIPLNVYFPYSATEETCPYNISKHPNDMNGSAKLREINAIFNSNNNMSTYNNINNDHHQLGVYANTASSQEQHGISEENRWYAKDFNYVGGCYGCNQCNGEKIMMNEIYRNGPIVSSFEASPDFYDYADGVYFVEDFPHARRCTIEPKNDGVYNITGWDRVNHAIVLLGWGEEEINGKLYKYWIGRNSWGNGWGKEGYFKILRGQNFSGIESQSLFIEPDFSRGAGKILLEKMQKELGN
Regarding `O=C(CCCCCNc1nc(S)nc2ccccc12)NCc1ccc2c(c1)OCO2`, the “% Inhibition @ 10 uM” value amounted to 4.3%.
On to `CCCCCn1ncc(OC)c(OC)c1=O`, for which the “% Inhibition @ 10 uM” value is 3.85%.
Take `COc1ccc(-n2c(-c3ccccc3)cn3c4c(=O)n(C)c(=O)n(C)c4nc23)cc1OC`: the “% Inhibition @ 10 uM” value is given as -6.4%.
As for `Cn1c2c(c(=O)n(C)c1=O)CN(CCCN1CCOCC1)CN2`, the “% Inhibition @ 10 uM” value was determined as 0.66%.
On to `O=c1cc(CSCc2ccccc2)nc2sc3c(n12)CCCC3`, for which the “% Inhibition @ 10 uM” value was determined as 20.1%.
As for `Cc1cc(C(=O)O)c(-c2ccccc2)o1`, the “% Inhibition @ 10 uM” value amounted to 0.392%.
Regarding `O=C(Nc1nc(-c2ccc(Cl)cc2)cs1)c1ccc2c(c1)OCO2`, the “% Inhibition @ 10 uM” value is on record as -2.27%.
The figure for `C/N=c1\c(NC(=O)c2cccs2)c(O)oc2ccccc12` is -2.23%; for `CCOc1ccccc1C1C2=C(O)CC(c3ccc(OC)cc3)CC2=Nc2ccccc2N1C(C)=O` (centres unmarked) it is -2.8%.
As for `CCc1ccc(C2CC(=O)NC(SCc3ccccc3)=C2C#N)cc1` (centres unmarked), the “% Inhibition @ 10 uM” value is reported as 8.01%.
As for `Cc1cc(C)n(-c2nc3cc(Cl)ccc3nc2NCc2ccccc2)n1`, the “% Inhibition @ 10 uM” value was found to be 8.64%.
The figure for `CCNS(=O)(=O)c1ccc(NC(=O)c2ccc(Cn3cc(Br)cn3)o2)cc1` is 1.8%.
Take `CN1CCN(c2ccc3sc4ccccc4c(=O)c3c2)CC1`: the “% Inhibition @ 10 uM” value is reported as 0.823%.
For `CCOCCCNC(=O)c1cnn(-c2ccc(F)cc2F)c1C1CCN(C(=O)OC(C)(C)C)CC1` the value was -1.98%; for `CC(C)CS(=O)(=O)C1=NN2C(=N)/C(=C\c3ccc(Cl)cc3)C(=O)N=C2S1`, 8.11%.
`CCOCCOC(=O)C1=C(C)NC(=O)NC1c1ccccc1OCC` (centres unmarked): the “% Inhibition @ 10 uM” value is on record as 26.5%.
`CC(C)C[C@H](NC(=O)OCc1cccc(C(F)(F)F)c1)C(=O)NCC#N`: the “% Inhibition @ 10 uM” value was -1.41%.
For `Cc1nc(Nc2nc(O)c3c(n2)CCCC3)nc2ccccc12`, the “% Inhibition @ 10 uM” value is reported as -1.6%.
With `COc1ccc(C2C=C(c3ccc(C)c(C)c3)Nc3nnnn32)c(OC)c1OC` (centres unmarked), the “% Inhibition @ 10 uM” value was found to be 1.86%.
As to `Cc1nc2cc(C(=O)O)ccc2[nH]1`, the “% Inhibition @ 10 uM” value is -6.62%.
The figure for `CN(Cc1ccccc1)C(=O)C1CCN(S(=O)(=O)c2cc(Cl)ccc2Cl)CC1` is 2.39%.
Turning to `CCn1c(O)c(C2=NCCC2)c2ccccc21`, the “% Inhibition @ 10 uM” value is reported as -6.83%.
Turning to `Cc1cccc(OCC(=O)Nc2ccc(S(=O)(=O)N3CCCCC3)cc2)c1`, the “% Inhibition @ 10 uM” value came out at 10.3%.
Turning to `CCN(CC)c1ccc(NC(C)=O)c(C)c1`, the “% Inhibition @ 10 uM” value was determined as 6.18%.
Regarding `Cc1ccccc1-c1nnc(CN2CCC3(CC2)OCCO3)o1`, the “% Inhibition @ 10 uM” value is on record as -2.23%.
As to `O=C(Nc1ccc(Cl)cc1C(=O)NCc1ccco1)c1ccco1`, the “% Inhibition @ 10 uM” value is on record as -2.17%.
With `OCC1CCCN1C/C=C/c1ccccc1` (centres unmarked), the “% Inhibition @ 10 uM” value is listed as -1.78%.
Turning to `N=C(NOC(=O)Cc1ccc(Cl)cc1)c1ccccn1`, the “% Inhibition @ 10 uM” value amounted to 3.72%.
As for `O=C1C2C3CCC(O3)C2C(=O)N1c1cc([N+](=O)[O-])ccc1O` (centres unmarked), the “% Inhibition @ 10 uM” value is -6.52%.
For `COc1cc(CN2CCN(Cc3ccc(Cl)cc3)CC2)cc(OC)c1OC` the value was -21.2%; for `CCOC(=O)N1CCc2[nH]c3ccc(Cl)cc3c2C1`, -7.5%; for `CCCN(CCC)C(=O)CS(=O)(=O)Cc1nc(-c2cccc(OC)c2)oc1C`, -1.89%.
`CCOc1ccccc1CNC(=O)c1ccc(CS(=O)Cc2ccc(Cl)cc2)o1` (centres unmarked): the “% Inhibition @ 10 uM” value is on record as -4.21%.
For `CC1(C)CC(=O)C(/C=N/CCc2ccc(S(N)(=O)=O)cc2)=C(O)C1` the value was 7.63%.
For `CN(C)c1ccc(NC(=O)CCCC(=O)Nc2ccc(N(C)C)cc2)cc1` the value was 2.32%.
Take `CCCC(=O)c1ccc(N2CCN(C(=O)c3ccc(F)c(F)c3)CC2)c(F)c1`: the “% Inhibition @ 10 uM” value was -1.38%.
Consider `CCN1CCN(CCCNC(=O)c2ccc3nc(/C=C(\O)c4ccc(OC)cc4)c(O)nc3c2)CC1`, for which the “% Inhibition @ 10 uM” value was found to be 8.63%.
As to `CCOc1ccc(CNCC2CCCO2)cc1` (centres unmarked), the “% Inhibition @ 10 uM” value is -1.59%.
Turning to `Cc1n[nH]c(C)c1CCCCOc1ccc(Br)cc1`, the “% Inhibition @ 10 uM” value is listed as 4.54%.
As for `COC(=O)c1c(SC)nc2ccsc2c1O`, the “% Inhibition @ 10 uM” value stood at 7.25%.
The figure for `CN(C(=O)Cn1ncc2c(=O)oc3ccccc3c21)C1CCCCC1` is 2.39%; for `Cc1ccc(Sc2ccc(/C=C3\C(=N)N4N=C(S(C)(=O)=O)SC4=NC3=O)o2)cc1` it is -3.39%.
`O=C(Nc1ccccc1)c1ccc(N2C(=O)C3CC=CCC3C2=O)cc1` (centres unmarked): the “% Inhibition @ 10 uM” value is reported as -1.88%.
`CC(C)NC(=O)c1nnc(Cc2ccc(Cl)cc2Cl)o1`: the “% Inhibition @ 10 uM” value stood at 0.454%.
Consider `CCOc1ccc(/C=C/c2nc(C#N)c(NCC3CCCO3)o2)cc1` (centres unmarked), for which the “% Inhibition @ 10 uM” value is listed as -4.39%.
On to `CCn1ncc(C(=O)Nc2ccccc2C)c1C`, for which the “% Inhibition @ 10 uM” value was -0.48%.
For `CCOc1ccc2oc(=O)cc(Cn3c(=O)cc(-c4ccccc4)c4c(C)nn(C)c43)c2c1` the value was 3.47%; for `O=C(Nc1ccc(S(=O)(=O)N2CCc3ccccc32)cc1)c1ccccc1Cl`, -2.3%; for `COc1ccc(CCN2CNc3c(-c4cccc(Cl)c4)c(C)nn3C2)cc1OC`, 0.66%.
In the case of `CCCCc1ccc(NS(=O)(=O)c2c(C)cc(C)cc2C)cc1`, the “% Inhibition @ 10 uM” value is reported as -3.15%.
